The results in this text go back to patent US11918574B2, “Method of treating cancer associated with a RAS mutation” (BeyondSpring Pharmaceuticals, Inc., priority 2015, dated 2024).

One data set relates to SNG-M. Kind of data set: Single agent CellTiter-Glo cell viability assay, SNG-M. The conditions noted are these: KRAS(p.G12V), Human Endometrial, 72 hours. Type of data set: cell-based. Here is the method:
(§1) All cell lines were grown in their respective proper growth media supplemented with 2-10% FBS and were housed in an atmosphere of 5% CO2 at 37° C.
(§2) Cells were plated in growth media in 96-well microtiter plates at a 100 uL volume. Cells were then incubated for 24 hours at 37° C. in a humidified incubator. The test agent (Plinabulin)'s doses were achieved using HP D300 Digital Dispenser. Briefly, the digital dispenser added test agent (Plinabulin) in a DMSO solvent at precise volumes to media containing wells. Control wells received equivolumes of DMSO that test agent (Plinabulin) wells received. Following addition of the test agents, cells were exposed at the concentrations and dilutions described in Table 1 for 72 hours at 37° C. in a humidified incubator. Following 72 hour exposure, Plinabulin and control media were removed and 200 μl of a 1:1 mixture of media and CellTiter-Glo® Reagent was added to each well. The plates were incubated for 60 minutes at 37° C. in a humidified incubator. After incubation, luminescence was recorded using a luminometer.
(§3) Data were expressed as the percent cell growth of the untreated (vehicle) control calculated from the luminescence signals. The surviving fraction of cells was determined by dividing the mean luminescence values of the samples treated with Plinabulin by the mean luminescence values of untreated control. […]
A general note: In ATP-based viability assays light output follows the ATP content of the culture.

Data set [1] has as its system LoVo (KRAS mutation p.G13D) human colon tumor xenograft. The conditions noted are these: for tumor growth inhibition (TGI): Day 15, compared to the vehicle control; for mean body weight loss throughout the study: LoVo xenograft study; for mice that survived to terminal sacrifice: of ten mice. From the text: LoVo Human Colon Tumor Xenograft Model: Female Athymic nude mice (Hsd:Athymic Nude-Foxn1nu) were supplied by Harlan (Indianapolis, IN). Mice were received at 4 weeks of age. All mice were acclimated prior to handling. The LoVo human colon tumor cell line was received from ATCC (Manassas, VA). Cultures were maintained in F12-K (Corning/Cellgro, Manassas, VA) supplemented with 10% fetal bovine serum (FBS; Seradigm; Radnor, PA), and housed in a 5% CO2 atmosphere. The cultures were expanded in tissue culture flasks at a 1:3 split ratio until a sufficient amount of cells were harvested. The LoVo human colon tumor cell line had mutations at KRAS p.G13D.
Female mice were inoculated in the subcutaneous right flank with 0.1 ml of a 50% Media/50% Matrigel mixture containing a suspension of LoVo tumor cells (1×10^7 cells/mouse).
Plinabulin vehicle (40% soltol:60% propylene glycol) was diluted in sterile 5% dextrose solution in the same ratio as for plinabulin and was used as a negative control.
Seven days following inoculation, tumors were measured using a digital caliper. The calipers were used to measure width and length diameters of the tumor. The measured values were digitally recorded using animal study management software, Study Director V.2.1.1 (Study Log). Tumor volumes were calculated utilizing the formula: Tumor volume (mm3)=(a×b2/2) where ‘b’ is the smallest diameter and ‘a’ is the largest diameters. […] Tumor volumes and body weights were recorded when the mice were randomized and were taken twice weekly thereafter. Clinical observations were made daily.
At time of necropsy, the tumors were excised and wet weight measurements were recorded as well as a visual assessment of tumor necrosis.
Mean tumor growth inhibition (TGI) was calculated for Day 27. All statistical analyses in the xenograft study were performed with Prism GraphPad® v6.00 software. Differences in Day 27 tumor volumes were confirmed using the Analysis of Variance (ANOVA) test. A one-tailed Student's T-Test with Welch's correction was also used to verify any differences between each group and the vehicle control, and a two-tailed Student's T-Test was used to verify differences between combination groups and their respective single agents.

In the next data set the test system is MIA PaCa- 2. The experiment in a line: Single agent CellTiter-Glo cell viability assay, MIA PaCa-2. The class given is cell-based. The conditions noted are these: KRAS(p.G12C), Human Pancreatic, 72 hours. How it is done: as §1, §2, §3
Data set [2] relates to HCT-15 (KRAS mutation G13D; P53 mutation S241F) human colon tumor xenograft. Kind of data set: HCT-15 human colon tumor xenograft model. (In general: Xenograft models place foreign cells or tissue in a host animal.)
Another data set concerns HCT116. The experiment in a line: Single agent CellTiter-Glo cell viability assay, HCT116. The conditions noted are these: HCT-116, KRAS(p.G13D), Human Colorectal, 72 hours. Type of data set: cell-based. Here is the method: as §1, §2, §3
Data set [3] concerns PDGF-induced gliomas that expressed G12D mutant KRAS. The experiment in a line: PDGF-induced glioma GEMM expressing G12D mutant KRAS, survival. The class given is in vivo, mice. An excerpt:
The mouse model of glioma used was a PDGF-driven GEMM of glioma that mimics the proneural molecular subgroup of glioblastoma (GBM). This model was based on somatic cell-specific gene transfer; the replication-competent ALV-splice acceptor (RCAS) retroviral system allowed the instillation of particular genetic alterations within tightly regulated windows of differentiation in a cell type-specific manner. The RCAS/tv-a system employed the RCAS retroviral vector to infect mice genetically engineered to express the RCAS receptor (Iv-a) in specific cell populations. Here, gliomas were generated by RCAS-mediated transfer of PDGF to nestin-expressing cells in the brain. […] PDGF-driven gliomas arose with complete penetrance when combined with Ink4a-arf−/− deletion by 4-5 weeks post-infection. […] The tumor cell structures that define human gliomas, such as Scherer structures, microvascular proliferation and pseudopalisading necrosis were recreated in this GEMM as shown in FIGS. 1a-1d. […]
Plinabulin was tested on Mice with PDGF-induced gliomas that expressed G12D mutant KRAS. […] The mice were entered into a study group and treated with either Plinabulin or Plinabulin diluent as described above while consecutively being monitored for lethargy, hunched posture, appetite loss, outward signs of tumor growth, agitation, weight-loss and overall failure to thrive. […]

The test system of the next data set is L363. Kind of data set: Single agent CellTiter-Glo cell viability assay, L363. Particulars: L-363, NRAS (p.Q61H), Human Multiple Myeloma, 72 hours. The class given is cell-based. How it is done: as §1, §2, §3
The test system of a further data set is KMS-27. The experiment in a line: Single agent CellTiter-Glo cell viability assay, KMS-27. The class given is cell-based. Particulars: NRAS (p.Q61R), Human Multiple Myeloma, 72 hours. Here is the method:
as §1, §2, §3

Another data set has as its system HEC1a. The experiment in a line: Single agent CellTiter-Glo cell viability assay, HEC1a. The class given is cell-based. The conditions noted are these: HEC-1-A, KRAS(p.G12D), Human Endometrial, 72 hours. How it is done: as §1, §2, §3
In a further data set the test system is AsPC-1. The experiment in a line: Single agent CellTiter-Glo cell viability assay, AsPC-1. Particulars: ASPC1, KRAS(p.G12D), Human Pancreatic, 72 hours. Type of data set: cell-based. Here is the method:
as §1, §2, §3

The test system of a further data set is MOLP-8. The experiment in a line: Single agent CellTiter-Glo cell viability assay, MOLP-8. Type of data set: cell-based. The conditions noted are these: NRAS (p.Q61L), Human Multiple Myeloma, 72 hours. Here is the method:
as §1, §2, §3

In the next data set the test system is Capan-2. Kind of data set: Single agent CellTiter-Glo cell viability assay, Capan-2. The class given is cell-based. The conditions noted are these: KRAS(p.G12V), Human Pancreatic, 72 hours. How it is done:
as §1, §2, §3

A further data set concerns HCT-15. Kind of data set: Single agent CellTiter-Glo cell viability assay, HCT-15. The class given is cell-based. Particulars: KRAS(p.G13D), Human Colorectal, 72 hours. Here is the method: as §1, §2, §3
Another data set concerns LoVo. The experiment in a line: Single agent CellTiter-Glo cell viability assay, LoVo. Type of data set: cell-based. The conditions noted are these: KRAS(p.G13D), Human Colorectal, 72 hours. Here is the method:
as §1, §2, §3

Data set [4] has as its system A549 (KRAS G12S) human lung tumor xenograft. Kind of data set: A549 human lung tumor xenograft model. Particulars: for toxic deaths: A549 xenograft study.
Another data set has as its system RXF-393. The experiment in a line: Single agent CellTiter-Glo cell viability assay, RXF-393. The class given is cell-based. The conditions noted are these: KRAS(p.D153V), Human Renal, 72 hours. Here is the method:
as §1, §2, §3

The subject of another data set is MM.1S. The experiment in a line: Single agent CellTiter-Glo cell viability assay, MM.1S. The class given is cell-based. The conditions noted are these: MM1.S, KRAS (p.G12A), Human Multiple Myeloma, 72 hours. Here is the method: as §1, §2, §3
The mark [5] stands for this setting: at the dose levels and schedules evaluated.

As to `CC(C)(C)c1[nH]cnc1/C=c1\[nH]c(=O)/c(=C/c2ccccc2)[nH]c1=O` [Plinabulin, (3Z,6Z)-3-Benzylidene-6-{[5-(2-methyl-2-propanyl)-1H-imidazol-4-yl]methylene}-2,5-piperazinedione], the IC50 – broadly, the point on the concentration scale where inhibition reaches its midpoint – came to 13.1 nM in the data set on SNG-M; 92.3 nM with MIA PaCa- 2; 32.8 nM with HCT116; 9.44 nM with L363; 7.84 nM in the data set with KMS-27; 57.7 nM in the data set with HEC1a. Besides, the IC50 with AsPC-1 was 16.9 nM; in the data set on MOLP-8, 4.22 nM; in the data set on Capan-2, 10.3 nM; in the data set with HCT-15, 13.1 nM; in the data set with LoVo, 6.85 nM; in the data set on RXF-393 it was 4.37 nM. This compound also came in with a half-maximal inhibitory concentration (IC50) in the data set with MM.1S of 19 nM. For the same compound, in [1], the “tumor growth inhibition (TGI)” value was 41.0%. In addition, the “mean body weight loss throughout the study” value in data set [1] is on record as “no mean body weight loss”. In addition, the “mice that survived to terminal sacrifice” value in [1] is listed as “Three out of ten”. Moreover, in [2] (HCT-15 xenograft study), the body weight loss entry was “mild body weight loss”. In [2] (HCT-15 xenograft study), the tolerability result was “well-tolerated”. In addition, the “toxicity as a single agent” value in [2] (setting [5]) and in [4] (setting [5]) was “no toxicity” each time. For the same compound, the “body weight and symptoms of treated mice” value in data set [3] (Plinabulin 7.5 mg/kg i.p. two times per week) is “began to gain weight and show improved symptoms within a few days”. Besides, the survival rate entry in data set [3] (Plinabulin 7.5 mg/kg i.p. two times per week for 10 wks vs Plinabulin diluent control, p=0.001, FIG. 4) is recorded as “significantly better survival rate”. The toxic deaths result in [4] is “no toxic deaths”. Besides, the mean weight gain came to 10.6% in [4] (Day 11) and 21.8% in data set [4] (Day 22).
Turning to `CCc1c2c(nc3ccc(OC(=O)N4CCC(N5CCCCC5)CC4)cc13)-c1cc3c(c(=O)n1C2)COC(=O)[C@]3(O)CC` [irinotecan, reference compound], in data set [1], the “tumor growth inhibition (TGI)” value amounted to 47.2%, the “mean body weight loss throughout the study” value is reported as “moderate body weight loss” and the “mice that survived to terminal sacrifice” value is “Five out of ten”. Besides, the “maximum body weight loss” value in [1] (Day 20, the final day of the study) was 7.4%. Moreover, in [2] (Day 27, compared to the vehicle negative control group), the “tumor growth inhibition (TGI)” value came to 31.8%. For the same compound, in data set [2] (HCT-15 xenograft study), the tolerability entry is given as “well-tolerated” and the toxic deaths entry is “no toxic deaths”. Also, the toxic deaths result in data set [4] is listed as “no toxic deaths”.
In the case of `CC(=O)O[C@@]12CO[C@@H]1C[C@H](O)[C@@]1(C)C(=O)[C@H](O)C3=C(C)[C@@H](OC(=O)[C@H](O)[C@@H](NC(=O)OC(C)(C)C)c4ccccc4)C[C@@](O)([C@@H](OC(=O)c4ccccc4)[C@H]21)C3(C)C` [Docetaxel, reference compound], in data set [4], the toxic deaths result is on record as “no toxic deaths”. For the same compound, the “tumor growth inhibition (TGI)” value in data set [4] (compared to the vehicle control group, Day 56, Plinabulin 7.5 mg/kg Days 1-5, Docetaxel 12.5 mg/kg i.v. Days 1, 3, 5) amounted to 26.1%.
